According to the supplement of paper PMC8007513:
Structures can show the parent of a compound that is named as a salt. ± gives the standard error. Screen size: about 1,300 compounds; about 75 (6%) showed an effect of 50% or more. The list shows a part of the results.

System: Trichoderma virens ATCC 9645
Assay: growth yield (OD600) relative to untreated control; higher = less growth inhibition
Details: compound concentration: 100 uM
How it was run: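 Trichoderma virens ATCC 9645 spores from 7-day potato dextrose agar plates were suspended in potato dextrose broth at 15,000 spores ml^−1. Aliquots of 100 μl with library compounds at 100 μM final, with or without a co-applied biocide at 200 ng ml^−1, were grown in 96-well plates at 30 °C. OD600 was read at 40 h and 72 h on a BioTek EL800. Growth is expressed relative to the control without either agent, as means of duplicate screens.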

| SMILES | growth yield (40 h) | growth yield (72 h) |
| --- | --- | --- |
| CCc1cc(C(N)=S)ccn1 [Ethionamide] | 102 ± 3% | 103 ± 2% |
| CC(=O)Nc1c(I)c(NC(C)=O)c(I)c(C(=O)O)c1I [Diatrizoic acid dihydrate] | 104 ± 3.6% | 101 ± 1.6% |
| CN(N=O)C(=O)N[C@@H](C=O)[C@@H](O)[C@H](O)[C@H](O)CO [Streptozotocin] | 103 ± 2.1% | 97.01 ± 0.52% |
| C#C[C@]1(O)CC[C@H]2[C@@H]3[C@H](C)CC4=C(CCC(=O)C4)[C@H]3CC[C@@]21C [Tibolone] | 88.31 ± 0.64% | 90.72 ± 0.1% |
| COc1cc(C(=O)N2CCOCC2)cc(OC)c1OC [Trimetozine] | 103 ± 2.9% | 97.95 ± 0.21% |
| CC(=O)OCC(=O)[C@@]1(O)CC[C@H]2[C@@H]3CCC4=CC(=O)C=C[C@]4(C)[C@@]3(F)[C@@H](O)C[C@@]21C [Isoflupredone acetate] | 104 ± 4.1% | 99.6 ± 2.3% |
| CN(C)CCCOc1nn(Cc2ccccc2)c2ccccc12 [Benzydamine hydrochloride] | 94.8 ± 2.4% | 100 ± 4% |
| Nc1ccc(S(=O)(=O)Nc2ccc(Cl)nn2)cc1 [Sulfachloropyridazine] | 94.5 ± 3.6% | 94.3 ± 1.8% |
| COc1cc2nc(N3CCN(C(=O)C4CCCO4)CC3)nc(N)c2cc1OC (stereo not drawn) [Terazosin hydrochloride] | 104 ± 3.5% | 98.7 ± 2.4% |
| NS(=O)(=O)c1cc2c(cc1Cl)NCNS2(=O)=O [Hydrochlorothiazide] | 106 ± 6% | 102 ± 4.5% |
| C[N+]1(C)CCC(=C(c2ccccc2)c2ccccc2)CC1 [Diphemanil methylsulfate] | 98.6 ± 6.2% | 97.2 ± 3% |
| CN(C)CCc1c[nH]c2ccc(C[C@H]3COC(=O)N3)cc12 [Zolmitriptan] | 106 ± 1.3% | 101 ± 1.1% |
| CN(C)CCC=C1c2ccccc2C=Cc2ccccc21 [Cyclobenzaprine hydrochloride] | 90.86 ± 0.32% | 89.2 ± 6% |
| O=c1[nH]c(=O)n([C@H]2C[C@H](O)[C@@H](CO)O2)cc1F [Floxuridine] | 11.1 ± 3.8% | 46.3 ± 9.3% |
| CNNCc1ccc(C(=O)NC(C)C)cc1 [Procarbazine hydrochloride] | 91.2% | 83.1 ± 4% |
| COc1cc(C)c(/C=C/C(C)=C/C=C/C(C)=C/C(=O)O)c(C)c1C [Acitretin] | 95.1 ± 3% | 89.2 ± 3.7% |
| CC(C)OC(=O)CCC/C=C\C[C@@H]1[C@@H](CC[C@@H](O)CCc2ccccc2)[C@H](O)C[C@@H]1O [Latanoprost] | 91.8 ± 9.2% | 90.6 ± 7.5% |
| CC(=O)Oc1cc(C(C)C)c(OCCN(C)C)cc1C [Moxisylyte hydrochoride] | 100 ± 1.1% | 97.4 ± 1.1% |
| CC(c1cc2ccccc2s1)N(O)C(N)=O (stereo not drawn) [Zileuton] | 94.5 ± 1.4% | 92 ± 2.2% |
